T1: UNK ZnF1-3 (human, UniProt Q9C0B0 31-174)
T1 sequence: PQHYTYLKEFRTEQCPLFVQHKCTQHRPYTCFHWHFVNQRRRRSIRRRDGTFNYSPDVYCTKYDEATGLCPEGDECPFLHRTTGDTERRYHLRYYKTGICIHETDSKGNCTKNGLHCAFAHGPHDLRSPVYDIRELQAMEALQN

B1: chr4:77932910:77932911:+_ENSG00000138758_ENST00000541121|hu_hu|motif|central (ssRNA)
RNA: GGGAGUUCUACAGUCCGACGAUCUUUAAUCUUCAAUUCCUCUUGCAGGUAGGCCUCGAACUGGGCAUCAAUAUAUUCGGCGGUCGGCUUAUAGCUGUCAUCUUUAUUUAUCUGGUCUCCAAAUCCCACGGUGUCAACAAUGGUCAACAGAGGAUUGAGCAUCA
B2: 107648809_107648929_2328_3pUTR_ENSMUSG00000033685_ENSMUST00000126534|mouse|control|control (ssRNA)
RNA: GGGAGUUCUACAGUCCGACGAUCCUGACUGAAACACCCUGACAAUCUAAGCGUUGACUGGUCCCCAGUCUUGGGGGAAAAGGUAAGGCUUCCAUCAGAAAGGCUCUUCAGAGGUCGGGUGCUACAGGUGGCUGUAAUCCCAGCCAACAGAGGAUUGAGCAUCA
B3: chr6:41757443:41757444:+_ENSG00000214736_ENST00000398881|hu_mus|hu_hu_hu_mus_False|78_88 (ssRNA)
RNA: GGGAGUUCUACAGUCCGACGAUCGAACCGUGCAGAGGCAACAUCUCGGAAUUCUGCGUGGACUCAAGGGGCAGUGGGGGGGGGUUCAGGCAAGGAGAGGGAGUCAACUUCAGCUGCCACUCAGGUAGGAUCUUGUGGUCACAGCAACAGAGGAUUGAGCAUCA
B4: chr2:135163197:135163198:+_ENSMUSG00000051177_ENSMUST00000110116|mus_mus|FALSE|FALSE (ssRNA)
RNA: GGGAGUUCUACAGUCCGACGAUCGAAGAGUUGAGGCAUGUAGUUGGAUGAAUCCACACGUGUUCCCUUGGGAUAUAUCCUGCUAAGUUGCAUCUUGUUGUAUUCUACAAAUUCCACCGGAGACUUUGUAAGUUGUUCAAGUCCCAACAGAGGAUUGAGCAUCA
B5: 17198956_17206531_622_3pUTR_ENSG00000003987_ENST00000180173|human|control|control (ssRNA)
RNA: GGGAGUUCUACAGUCCGACGAUCCACCGGGCACUGAAGCCGGACAGGGGCUGGCUGCUCCGGCAGAUGGAGGCGUGGUUAUCUUUAUAAUAGUAAGAAAGGACAGGAAAUCGCCGUCUACUCCGGAAUUUGGAACUCCCCACUCAACAGAGGAUUGAGCAUCA
B6: chr4:33586012:33586013:+_ENSMUSG00000028274_ENSMUST00000108153|mus_hu|FALSE|FALSE (ssRNA)
RNA: GGGAGUUCUACAGUCCGACGAUCUGAGAUGCUGUUACACACAGCCAUGGCAGUGUUGUAGGCAUUAGGAAAACUUUUGUCUGUUCUCUGUCUCAUGAAGACCCAGCUGUUGUUCUCAAAUUUGCAUUCUAUAAUUUUGUUGUCCAACAGAGGAUUGAGCAUCA

The list shows a part of the results.

This experiment addresses T1, UNK ZnF1-3. Briefly: nsRBNS (natural sequence RNA bind-n-seq); RBNS binding buffer (assumed for nsRBNS): 25 mM Tris pH 7.5, 150 mM KCl, 3 mM MgCl2, 0.01% Triton X-100, 500 ug/ml BSA, 20 U/ml SUPERase-In, 4 C; UNK is unkempt and MSI1 is Musashi-1; names of the RNAs are library labels; protein concentration not given here; high values mean tight binding.
Regarding B1, the binding signal was determined as 1.16 enrichment R.
Under B2 stands 1.46 enrichment R; under B3, 2.45 enrichment R; under B4, 0.692 enrichment R.
Under B5 stands 1.48 enrichment R.
Under B6 stands 0.628 enrichment R.

These data come from article PMC12136788.
